In ChEMBL document CHEMBL1201862, “PubChem BioAssay data set” (2004):
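These data come from cells grown in 96-well plates and exposed to compound for 48 hours at five concentrations. Here, GI50 denotes the concentration required for 50% inhibition of growth.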 The source made the active and inactive calls. No stated cut-off is given here; in the data, active = GI50 up to about 1.1 µM and inactive = higher.

What was measured:
Assay in all cases: DTP human tumour cell line panel, 48 h
NCI-H23 = test system: NCI-H23
UACC-257 = test system: UACC-257
CAKI-1 = test system: CAKI-1
EKVX = test system: EKVX
Hs-578T = test system: Hs-578T
MDA-MB-231 = test system: MDA-MB-231
OVCAR-4 = test system: OVCAR-4
IGROV-1 = test system: IGROV-1
786-0 = test system: 786-0
U-251 = test system: U-251
HCT-116 = test system: HCT-116
SK-MEL-2 = test system: SK-MEL-2
UO-31 = test system: UO-31
NCI-H522 = test system: NCI-H522
SF-268 = test system: SF-268
SK-MEL-28 = test system: SK-MEL-28
HOP-62 = test system: HOP-62
KM12 = test system: KM12
RPMI-8226 = test system: RPMI-8226
BT-549 = test system: BT-549
NCI-H226 = test system: NCI-H226
NCI/ADR-RES = test system: NCI/ADR-RES
OVCAR-3 = test system: OVCAR-3
A498 = test system: A498
SK-OV-3 = test system: SK-OV-3
SK-MEL-5 = test system: SK-MEL-5
PC-3 = test system: PC-3
HCT-15 = test system: HCT-15
OVCAR-5 = test system: OVCAR-5
K562 = test system: K562
DU-145 = test system: DU-145
UACC-62 = test system: UACC-62
T47D = test system: T47D
CCRF-CEM = test system: CCRF-CEM
HL-60 = test system: HL-60
MDA-MB-435 = test system: MDA-MB-435
MDA-N = test system: MDA-N
Malme-3M = test system: Malme-3M
SNB-75 = test system: SNB-75
RXF 393 = test system: RXF 393
SF-295 = test system: SF-295
SW-620 = test system: SW-620
A549 = test system: A549
SN12C = test system: SN12C
M14 = test system: M14
SNB-19 = test system: SNB-19
HT-29 = test system: HT-29
MCF7 = test system: MCF7
ACHN = test system: ACHN
COLO 205 = test system: COLO 205
TK-10 = test system: TK-10
MOLT-4 = test system: MOLT-4
OVCAR-8 = test system: OVCAR-8
SR = test system: SR
LOX IMVI = test system: LOX IMVI

## CN1C2CCC1CC(OC(=O)C(O)c1ccccc1)C2 (stereo not given)
NCI-H23
  GI50: inactive: > 100 µM
UACC-257
  GI50: inactive: > 100 µM
CAKI-1
  GI50: inactive: > 100 µM
EKVX
  GI50: inactive: > 100 µM
Hs-578T
  GI50: inactive: 87.5 µM
MDA-MB-231
  GI50: inactive: > 100 µM
OVCAR-4
  GI50: inactive: > 100 µM
IGROV-1
  GI50: inactive: > 100 µM
786-0
  GI50: inactive: > 100 µM
U-251
  GI50: inactive: > 100 µM
HCT-116
  GI50: inactive: > 100 µM
SK-MEL-2
  GI50: inactive: > 100 µM
UO-31
  GI50: inactive: > 100 µM
NCI-H522
  GI50: inactive: > 100 µM
SF-268
  GI50: inactive: > 100 µM
SK-MEL-28
  GI50: inactive: > 100 µM
HOP-62
  GI50: inactive: > 100 µM
KM12
  GI50: inactive: > 100 µM
RPMI-8226
  GI50: inactive: 31 µM
BT-549
  GI50: inactive: > 100 µM
NCI-H226
  GI50: inactive: > 100 µM
NCI/ADR-RES
  GI50: inactive: > 100 µM
OVCAR-3
  GI50: inactive: > 100 µM
A498
  GI50: inactive: > 100 µM
SK-OV-3
  GI50: inactive: > 100 µM
SK-MEL-5
  GI50: inactive: > 100 µM
PC-3
  GI50: inactive: > 100 µM
HCT-15
  GI50: > 100 µM
OVCAR-5
  GI50: inactive: > 100 µM
K562
  GI50: inactive: > 100 µM
DU-145
  GI50: inactive: > 100 µM
UACC-62
  GI50: inactive: > 100 µM
T47D
  GI50: inactive: > 100 µM
CCRF-CEM
  GI50: inactive: > 100 µM
HL-60
  GI50: inactive: > 100 µM
MDA-MB-435
  GI50: inactive: > 100 µM
MDA-N
  GI50: inactive: > 100 µM
Malme-3M
  GI50: inactive: > 100 µM
SNB-75
  GI50: inactive: > 100 µM
RXF 393
  GI50: inactive: > 100 µM
SF-295
  GI50: inactive: > 100 µM
SW-620
  GI50: inactive: > 100 µM
A549
  GI50: inactive: > 100 µM
SN12C
  GI50: inactive: > 100 µM
M14
  GI50: inactive: > 100 µM
SNB-19
  GI50: inactive: > 100 µM
HT-29
  GI50: inactive: > 100 µM
MCF7
  GI50: inactive: > 100 µM
ACHN
  GI50: inactive: > 100 µM
COLO 205
  GI50: inactive: > 100 µM
TK-10
  GI50: inactive: > 100 µM
MOLT-4
  GI50: inactive: > 100 µM
OVCAR-8
  GI50: inactive: > 100 µM
SR
  GI50: inactive: > 100 µM
LOX IMVI
  GI50: inactive: > 100 µM
